# According to PMC7491321 (RNA, 2020):
# Molecular target: the molecule itself
# Assay: glycerol gradient sedimentation with western blot
protein,measurement,value
"Hfq (FLAG-tagged variant, Salmonella enterica serovar Typhimurium SL1344) (natural protein) not shown",stoichiometry N,6
